In the supplement of paper PMC8728848:
This is one part of the list.

Key:
Assay in all cases: glycan array binding signal (z-score within array); higher = stronger binding
Conditions in all cases: glycan notation: IUPAC condensed, linker removed
Gal(a1-6)Glc = target: Gal(a1-6)Glc
How it was run: (§1)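 Glycan array data came from 3228 arrays in the Consortium for Functional Glycomics database, and only arrays with an available protein sequence were kept. Glycan names were put into IUPAC-condensed notation, and columns mapping to the same glycan were averaged. The binding signal is a within-array Z-score, averaged across arrays of one protein sequence run at different concentrations or buffers and across linkers. A negative Z-score can be read as non-binding.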

Gal(b1-2)Gal = target: Gal(b1-2)Gal
How it was run: as §1

Gal(b1-3)Gal = target: Gal(b1-3)Gal
How it was run: as §1

Gal(b1-3)Gal(b1-4)GlcNAc = target: Gal(b1-3)Gal(b1-4)GlcNAc
How it was run: as §1

Gal(b1-3)GalNAc = target: Gal(b1-3)GalNAc
How it was run: as §1

[1] = target: Gal(b1-3)GalNAc(a1-3)[Fuc(a1-2)]Gal(b1-4)Glc
How it was run: as §1

[2] = target: Gal(b1-3)GalNAc(a1-3)[Fuc(a1-2)]Gal(b1-4)GlcNAc
How it was run: as §1

Gal(b1-3)GalNAc(b1-3)Gal = target: Gal(b1-3)GalNAc(b1-3)Gal
How it was run: as §1

[3] = target: Gal(b1-3)GalNAc(b1-3)Gal(a1-4)Gal(b1-4)Glc
How it was run: as §1

[4] = target: Gal(b1-3)GalNAc(b1-4)Gal(b1-4)Glc
How it was run: as §1

[5] = target: Gal(b1-3)GalNAc(b1-4)[Neu5Ac(a2-3)]Gal(b1-4)Glc
How it was run: as §1

Gal(b1-3)GlcNAc = target: Gal(b1-3)GlcNAc
How it was run: as §1

[6] = target: Gal(b1-3)GlcNAc(a1-3)Gal(b1-4)GlcNAc
How it was run: as §1

[7] = target: Gal(b1-3)GlcNAc(a1-6)Gal(b1-4)GlcNAc
How it was run: as §1

Gal(b1-3)GlcNAc(b1-2)Man = target: Gal(b1-3)GlcNAc(b1-2)Man
How it was run: as §1

[8] = target: Gal(b1-3)GlcNAc(b1-2)Man(a1-3)[Gal(b1-3)GlcNAc(b1-2)Man(a1-6)]Man(b1-4)GlcNAc(b1-4)GlcNAc
How it was run: as §1

[9] = target: Gal(b1-3)GlcNAc(b1-2)Man(a1-3)[Gal(b1-3)GlcNAc(b1-2)Man(a1-6)]Man(b1-4)GlcNAc(b1-4)[Fuc(a1-6)]GlcNAc
How it was run: as §1

[10] = target: Gal(b1-3)GlcNAc(b1-2)Man(a1-3)[GlcNAc(b1-4)][Gal(b1-3)GlcNAc(b1-2)Man(a1-6)]Man(b1-4)GlcNAc(b1-4)GlcNAc
How it was run: as §1

[11] = target: Gal(b1-3)GlcNAc(b1-2)[Gal(b1-3)GlcNAc(b1-6)]Man(a1-6)[Gal(b1-3)GlcNAc(b1-2)Man(a1-3)]Man(b1-4)GlcNAc(b1-4)GlcNAc
How it was run: as §1

[12] = target: Gal(b1-3)GlcNAc(b1-3)Gal(b1-3)GlcNAc
How it was run: as §1

[13] = target: Gal(b1-3)GlcNAc(b1-3)Gal(b1-4)Glc
How it was run: as §1

[14] = target: Gal(b1-3)GlcNAc(b1-3)Gal(b1-4)GlcNAc
How it was run: as §1

[15] = target: Gal(b1-3)GlcNAc(b1-3)Gal(b1-4)GlcNAc(b1-2)Man(a1-3)[Gal(b1-3)GlcNAc(b1-3)Gal(b1-4)GlcNAc(b1-2)Man(a1-6)]Man(b1-4)GlcNAc(b1-4)GlcNAc
How it was run: as §1

[16] = target: Gal(b1-3)GlcNAc(b1-3)Gal(b1-4)GlcNAc(b1-2)[Gal(b1-3)GlcNAc(b1-3)Gal(b1-4)GlcNAc(b1-6)]Man(a1-6)[Gal(b1-3)GlcNAc(b1-3)Gal(b1-4)GlcNAc(b1-2)Man(a1-3)]Man(b1-4)GlcNAc(b1-4)[Fuc(a1-6)]GlcNAc
How it was run: as §1

[17] = target: Gal(b1-3)GlcNAc(b1-3)Gal(b1-4)GlcNAc(b1-3)Gal(b1-4)GlcNAc(b1-2)[Gal(b1-3)GlcNAc(b1-3)Gal(b1-4)GlcNAc(b1-3)Gal(b1-4)GlcNAc(b1-6)]Man(a1-6)[Gal(b1-3)GlcNAc(b1-3)Gal(b1-4)GlcNAc(b1-3)Gal(b1-4)GlcNAc(b1-2)Man(a1-3)]Man(b1-4)GlcNAc(b1-4)[Fuc(a1-6)]GlcNAc
How it was run: as §1

[18] = target: Gal(b1-3)GlcNAc(b1-3)Gal(b1-4)GlcNAc(b1-6)[Gal(b1-3)GlcNAc(b1-3)]Gal(b1-4)Glc
How it was run: as §1

[19] = target: Gal(b1-3)GlcNAc(b1-3)Gal(b1-4)[Fuc(a1-3)]GlcNAc
How it was run: as §1

[20] = target: Gal(b1-3)GlcNAc(b1-3)Gal(b1-4)[Fuc(a1-3)]GlcNAc(b1-6)[Gal(b1-3)GlcNAc(b1-3)]Gal(b1-4)Glc
How it was run: as §1

[21] = target: Gal(b1-3)GlcNAc(b1-3)GalNAc
How it was run: as §1

[22] = target: Gal(b1-3)GlcNAc(b1-6)Gal(b1-4)GlcNAc
How it was run: as §1

[23] = target: Gal(b1-3)GlcNAc(b1-6)GalNAc
How it was run: as §1

[24] = target: Gal(b1-3)GlcNAc(b1-6)[Gal(b1-3)]GalNAc
How it was run: as §1

Gal(b1-3)GlcNAc6S = target: Gal(b1-3)GlcNAc6S
How it was run: as §1

[25] = target: Gal(b1-3)[Fuc(a1-4)]GlcNAc
How it was run: as §1

[26] = target: Gal(b1-3)[Fuc(a1-4)]GlcNAc(b1-2)Man
How it was run: as §1

[27] = target: Gal(b1-3)[Fuc(a1-4)]GlcNAc(b1-2)Man(a1-3)[Gal(b1-3)[Fuc(a1-4)]GlcNAc(b1-2)Man(a1-6)]Man(b1-4)GlcNAc(b1-4)[Fuc(a1-6)]GlcNAc
How it was run: as §1

[28] = target: Gal(b1-3)[Fuc(a1-4)]GlcNAc(b1-3)Gal(b1-3)[Fuc(a1-4)]GlcNAc
How it was run: as §1

[29] = target: Gal(b1-3)[Fuc(a1-4)]GlcNAc(b1-3)Gal(b1-4)[Fuc(a1-3)]GlcNAc
How it was run: as §1

[30] = target: Gal(b1-3)[Fuc(a1-4)]GlcNAc(b1-6)GalNAc
How it was run: as §1

[31] = target: Gal(b1-3)[GlcNAc(b1-6)]GalNAc
How it was run: as §1

[32] = target: Gal(b1-3)[Neu5Ac(a2-6)]GalNAc
How it was run: as §1

[33] = target: Gal(b1-3)[Neu5Ac(a2-6)]GlcNAc(b1-4)Gal(b1-4)Glc
How it was run: as §1

[34] = target: Gal(b1-3)[Neu5Ac(b2-6)]GalNAc
How it was run: as §1

Gal(b1-4)Gal = target: Gal(b1-4)Gal
How it was run: as §1

[35] = target: Gal(b1-4)GalNAc(a1-3)[Fuc(a1-2)]Gal(b1-4)GlcNAc
How it was run: as §1

B1: PX9961A-pdi-456-24-456 (Parabacteroides distasonis) (protein)
chain: KTSSTQLPTIDAISSVADLTNAVNGVYEQQATEVGSYGAEFTLLADLRSGDFQSISTVNHAGPMYRYQTGKNDEMVYSFYKLFYNSLARLNNVLAAAENLEGADVDILKGELYAMRALYHFDLARVFAKLPSTTDMNDLGIVLSTEVYPTDYIGTRATLQQTYDQILKDIETALPLLSKDKQTGHINYWGALAIRARAYLYLEKNKEALADCKEIIASSPYKLYTRDEYIGAWDKEGTNEAIFEILVTPNYNAQRNSIGYFTHASGYGECAATESFLEELAKHPGDIRTELFAKETDNGYDGTYPQKYKGRDGQIYVNNPKVVRLSEVYLIAAEAALKAGDTSAAAGYMNTLRKNRIENYTDVASITLDDILLERRLELFTEGHTAWDAWRNGKSVNNKFVGEVKPGDYRTIMAIPIGEITVSRGQLIQNPGY
Gal(a1-6)Glc
  glycan array binding signal (z-score): -0.23
Gal(b1-2)Gal
  glycan array binding signal (z-score): -0.248
Gal(b1-3)Gal
  glycan array binding signal (z-score): -0.086
Gal(b1-3)Gal(b1-4)GlcNAc
  glycan array binding signal (z-score): -0.049
Gal(b1-3)GalNAc
  glycan array binding signal (z-score): 0.228
[1]
  glycan array binding signal (z-score): -0.111
[2]
  glycan array binding signal (z-score): -0.533
Gal(b1-3)GalNAc(b1-3)Gal
  glycan array binding signal (z-score): 0.253
[3]
  glycan array binding signal (z-score): 0.384
[4]
  glycan array binding signal (z-score): 0.652
[5]
  glycan array binding signal (z-score): -0.081
Gal(b1-3)GlcNAc
  glycan array binding signal (z-score): -0.255
[6]
  glycan array binding signal (z-score): -0.004
[7]
  glycan array binding signal (z-score): -0.438
Gal(b1-3)GlcNAc(b1-2)Man
  glycan array binding signal (z-score): 0.208
[8]
  glycan array binding signal (z-score): 0.072
[9]
  glycan array binding signal (z-score): -0.732
[10]
  glycan array binding signal (z-score): -0.052
[11]
  glycan array binding signal (z-score): 0.313
[12]
  glycan array binding signal (z-score): 0.213
[13]
  glycan array binding signal (z-score): -0.54
[14]
  glycan array binding signal (z-score): -0.516
[15]
  glycan array binding signal (z-score): -0.52
[16]
  glycan array binding signal (z-score): 1.83
[17]
  glycan array binding signal (z-score): 0.399
[18]
  glycan array binding signal (z-score): -0.037
[19]
  glycan array binding signal (z-score): -0.217
[20]
  glycan array binding signal (z-score): -0.315
[21]
  glycan array binding signal (z-score): -0.615
[22]
  glycan array binding signal (z-score): 0.264
[23]
  glycan array binding signal (z-score): -0.245
[24]
  glycan array binding signal (z-score): 0.048
Gal(b1-3)GlcNAc6S
  glycan array binding signal (z-score): -0.214
[25]
  glycan array binding signal (z-score): -0.145
[26]
  glycan array binding signal (z-score): 0.103
[27]
  glycan array binding signal (z-score): 0.599
[28]
  glycan array binding signal (z-score): 0.1
[29]
  glycan array binding signal (z-score): 0.361
[30]
  glycan array binding signal (z-score): 0.334
[31]
  glycan array binding signal (z-score): 0.072
[32]
  glycan array binding signal (z-score): -0.243
[33]
  glycan array binding signal (z-score): -0.197
[34]
  glycan array binding signal (z-score): -0.243
Gal(b1-4)Gal
  glycan array binding signal (z-score): -0.408
[35]
  glycan array binding signal (z-score): -0.34
